Hit rate of the full screen: of about 2,700 compounds, about 160 (5.9%) showed an effect of 50% or more. This is one part of the list.
Biological target: Nonstructural protein 3 (Zika virus) (UniProt A0A024AXB9)
[1] = PRVABC59, Concentration 50.0 uM, Number of replicates 1.0
[2] = PRVABC59, Concentration 15.0 uM, Number of replicates 1.0

Sequence of UniProt A0A024AXB9 (A0A024AXB9 as listed by the source): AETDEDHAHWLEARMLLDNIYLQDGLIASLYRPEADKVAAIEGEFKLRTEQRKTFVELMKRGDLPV

**Q.** For `O=Cc1ccc(N2CCC(C(=O)N3C[C@@H]4C[C@H]3CN4Cc3ccccc3)CC2)cc1`, which inhibition [1] is on record?
**A.** 26.4%

**Q.** How did the inhibition (PRVABC59, Concentration 49.5 uM, Number of replicates 2.0, Standard deviation 3.8174405200431902 %) turn out when `Cn1ccnc1[C@H]1CCCN(c2nc(N)nc3[nH]ccc23)C1` was run?
**A.** -2.28%

**Q.** And the inhibition (PRVABC59, Concentration 99.01 uM, Number of replicates 2.0, Standard deviation 1.4789216188918706 %)?
**A.** -3.06%

**Q.** And the inhibition (PRVABC59, Concentration 198.0 uM, Number of replicates 2.0, Standard deviation 2.077532676089371 %)?
**A.** -2.23%

**Q.** How did the inhibition [2] turn out when `O=C(Nc1c(F)cc(Br)cc1F)c1cc(Cl)ccc1NS(=O)(=O)c1ccc(Oc2ccccc2Cl)cc1` was run?
**A.** 21.6%

**Q.** For `NCc1cccc(NC(=O)[C@]2(NC(=O)OCc3ccccc3)CCc3ccccc32)c1`, which inhibition (PRVABC59, Concentration 49.5 uM, Number of replicates 2.0, Standard deviation 0.7623792541417952 %) is on record?
**A.** 2.16%

**Q.** And the inhibition (PRVABC59, Concentration 99.01 uM, Number of replicates 2.0, Standard deviation 1.7788848701350575 %)?
**A.** 2.87%

**Q.** And the inhibition (PRVABC59, Concentration 198.0 uM, Number of replicates 2.0, Standard deviation 1.0657751133151034 %)?
**A.** 6.53%

**Q.** Which inhibition [2] does the source give for `COc1cc(NC(=O)c2cc(Cl)ccc2NS(=O)(=O)c2ccc(Oc3ccccc3Cl)cc2)ccc1Br` here?
**A.** 60.4%

**Q.** `O=C(N[C@H](c1ccccc1)C(F)(F)F)c1cc(Cl)ccc1NS(=O)(=O)c1ccc(Oc2ccccc2Cl)cc1` was tested. Which inhibition [2] did it give?
**A.** 60.6%

**Q.** How did the inhibition (PRVABC59, Concentration 49.5 uM, Number of replicates 2.0, Standard deviation 2.4193874080883244 %) turn out when `Cn1nc(CN2CCC(c3c[nH]c4cccnc34)CC2)c2cccnc21` was run?
**A.** -2.91%

**Q.** What about the inhibition (PRVABC59, Concentration 99.01 uM, Number of replicates 2.0, Standard deviation 2.730562374311561 %) of the same compound?
**A.** -2.31%

**Q.** And the inhibition (PRVABC59, Concentration 198.0 uM, Number of replicates 2.0, Standard deviation 1.9266932778068837 %)?
**A.** -2.15%

**Q.** How did the inhibition [1] turn out when `O=Cc1ccc(N2CCC(C(=O)Nc3cc(Cl)c(F)c(Cl)c3)CC2)cc1` was run?
**A.** 20.1%

**Q.** For `O=C(c1cc(Cl)ccc1NS(=O)(=O)c1ccc(Oc2ccccc2Cl)cc1)N1CCC[C@H]1c1cccc(F)c1`, which inhibition [2] is on record?
**A.** 9.24%

**Q.** `COc1ccccc1OCCCN(C)C(=O)c1cc(Cl)ccc1NS(=O)(=O)c1ccc(Oc2ccccc2Cl)cc1` was tested. Which inhibition [2] did it give?
**A.** 13%

**Q.** For `O=Cc1ccc(N2CCC(C(=O)N3CCC(N4CCOCC4)CC3)CC2)cc1`, which inhibition [1] is on record?
**A.** 27.1%

**Q.** `O=Cc1ccc(N2CCC(C(=O)N3CC4C[C@H]5CC3C[C@H](C4)C5)CC2)cc1` was tested. Which inhibition [1] did it give?
**A.** 26.4%

**Q.** How did the inhibition (PRVABC59, Concentration 49.5 uM, Number of replicates 2.0, Standard deviation 1.6711835088733193 %) turn out when `CC(C)(CO)NC(=O)c1cc(Cl)cc(NC(=O)Cn2cnccc2=O)c1` was run?
**A.** -1.4%

**Q.** What about the inhibition (PRVABC59, Concentration 99.01 uM, Number of replicates 2.0, Standard deviation 3.2749476966100057 %) of the same compound?
**A.** -0.302%

**Q.** What about the inhibition (PRVABC59, Concentration 198.0 uM, Number of replicates 2.0, Standard deviation 4.3005396673800345 %) of the same compound?
**A.** 1.11%

**Q.** How did the inhibition [2] turn out when `COc1ccccc1CN(CCCO)C(=O)c1cc(Cl)ccc1NS(=O)(=O)c1ccc(Oc2ccccc2Cl)cc1` was run?
**A.** 23.2%

**Q.** What does the source list for `CC1(C)C[C@H](NC(=O)c2ccnc3[nH]ncc23)CN(C(=O)c2cnc[nH]2)C1`?
**A.** inhibition (PRVABC59, Concentration 49.5 uM, Number of replicates 2.0, Standard deviation 2.146240510678679 %): 0.613%; inhibition (PRVABC59, Concentration 99.01 uM, Number of replicates 2.0, Standard deviation 1.6633364611035912 %): -0.6%; inhibition (PRVABC59, Concentration 198.0 uM, Number of replicates 2.0, Standard deviation 2.42246977570732 %): -3.3%

**Q.** How did the inhibition [1] turn out when `O=Cc1ccc(N2CCC(C(=O)N3CCC(c4cccc(Cl)c4)CC3)CC2)cc1` was run?
**A.** -4.34%

**Q.** For `C#CCN(C(=O)C1CCN(c2ccc(C=O)cc2)CC1)[C@@H](C)Cc1ccccc1`, which inhibition [1] is on record?
**A.** 29.9%

**Q.** Which results are given for `COc1cc(Cn2cc(C3CCNCC3)c(C)n2)ccn1`?
**A.** inhibition (PRVABC59, Concentration 49.5 uM, Number of replicates 2.0, Standard deviation 1.8611836725231279 %): 0.683%; inhibition (PRVABC59, Concentration 99.01 uM, Number of replicates 2.0, Standard deviation 2.3024742735653634 %): 1.42%; inhibition (PRVABC59, Concentration 198.0 uM, Number of replicates 2.0, Standard deviation 2.257528084059936 %): 2.51%

**Q.** Which inhibition [2] does the source give for `O=C(NCCCCN1CCOCC1)c1cc(Cl)ccc1NS(=O)(=O)c1ccc(Oc2ccccc2Cl)cc1` here?
**A.** 6.37%

**Q.** For `COc1c(Cl)cccc1NC(=O)C1CCN(c2ccc(C=O)cc2)CC1`, which inhibition [1] is on record?
**A.** 25.5%

**Q.** For `O=C(NC[C@H](O)c1ccc(O)cc1)c1cc(Cl)ccc1NS(=O)(=O)c1ccc(Oc2ccccc2Cl)cc1`, which inhibition [2] is on record?
**A.** 18.8%

— ChEMBL document CHEMBL5606458, “ASAP - ZIKV NS2B-NS3 protease fluorescence single point” (2024)
